# Data published in PubChem BioAssay AID504332 (National Center for Advancing Translational Sciences (NCATS), 2011).
# In all, about 350,000 compounds went through this assay and about 31,000 (8.9%) were called active. The inconclusive results got no clear call from the source; some entries with a clear call stand among them for comparison. Calls follow the shape of the dose curve; as a rule, active = well fitted inhibition curve with a large enough effect; inconclusive = small, poorly fitted or top-dose-only effect; inactive = no such curve, though single readings can be large or run the other way. Potencies of inconclusive entries are doubtful fits and often do not repeat.
# Biological target: Histone-lysine N-methyltransferase EHMT2 (Homo sapiens) (UniProt Q96KQ7)
# Chain of UniProt Q96KQ7 (Q96KQ7 whole entry, looked up): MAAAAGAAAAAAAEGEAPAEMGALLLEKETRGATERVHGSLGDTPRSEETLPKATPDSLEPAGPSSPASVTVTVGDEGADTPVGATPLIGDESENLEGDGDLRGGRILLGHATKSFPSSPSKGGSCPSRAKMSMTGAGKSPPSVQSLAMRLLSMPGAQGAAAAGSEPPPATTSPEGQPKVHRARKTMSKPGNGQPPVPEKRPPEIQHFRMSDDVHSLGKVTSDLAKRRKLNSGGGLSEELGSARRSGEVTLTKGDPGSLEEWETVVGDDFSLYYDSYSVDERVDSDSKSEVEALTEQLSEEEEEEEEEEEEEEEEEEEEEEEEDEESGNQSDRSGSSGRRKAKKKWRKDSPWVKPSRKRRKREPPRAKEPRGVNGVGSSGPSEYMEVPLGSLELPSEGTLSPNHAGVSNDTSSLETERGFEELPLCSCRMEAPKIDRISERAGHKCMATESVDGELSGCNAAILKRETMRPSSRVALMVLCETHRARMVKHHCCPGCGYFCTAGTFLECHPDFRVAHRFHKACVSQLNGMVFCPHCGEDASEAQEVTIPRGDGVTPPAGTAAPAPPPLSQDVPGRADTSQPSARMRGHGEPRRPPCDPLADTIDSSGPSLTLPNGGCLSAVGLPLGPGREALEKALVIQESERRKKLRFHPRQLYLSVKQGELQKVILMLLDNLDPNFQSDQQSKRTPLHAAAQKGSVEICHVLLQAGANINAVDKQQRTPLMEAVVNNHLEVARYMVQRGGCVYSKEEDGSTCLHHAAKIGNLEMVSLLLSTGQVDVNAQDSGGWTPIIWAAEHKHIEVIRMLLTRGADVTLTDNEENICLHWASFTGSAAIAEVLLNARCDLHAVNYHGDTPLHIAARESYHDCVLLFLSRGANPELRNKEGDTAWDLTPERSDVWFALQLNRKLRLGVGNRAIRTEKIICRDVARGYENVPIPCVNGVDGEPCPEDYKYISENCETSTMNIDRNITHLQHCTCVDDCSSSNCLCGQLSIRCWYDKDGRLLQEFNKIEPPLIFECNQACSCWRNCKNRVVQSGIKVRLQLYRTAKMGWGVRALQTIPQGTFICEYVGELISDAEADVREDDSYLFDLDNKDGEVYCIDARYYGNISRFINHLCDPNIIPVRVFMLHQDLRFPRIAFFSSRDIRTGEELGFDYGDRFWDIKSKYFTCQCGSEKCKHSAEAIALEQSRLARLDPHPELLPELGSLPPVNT
# Assay: qHTS Assay for Inhibitors of Histone Lysine Methyltransferase G9a; also: nearly all actives have a fitted effect of over 75% in size
# Settings: G9a H3K9 monomethylation, AlphaScreen, 2 h; activity, negative = inhibition: at 59 µM (top of the series) unless noted
# How it was run: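 AlphaScreen read-out: biotin-H3K9 peptide (500 nM) methylation by 20 nM enzyme with 20 uM SAM, 2 h at room temperature after 15 min compound preincubation; anti-monomethyl H3K9 antibody plus donor/acceptor beads, 10 min dark.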
# % is scaled to controls: 0 for no effect and ±100 for the full control effect; potency is read from the fitted curve at half-maximal effect; tags tell the direction and shape of the fitted curve.
Structure (SMILES),Potency,"activity, negative = inhibition"
Cn1nnc(NC(=S)NC(=O)c2cccc3c(Br)cccc23)n1,"inconclusive: 89.1 µM [inhibitor, single point]",
Cc1ccc(NC(=O)CN2CCN(S(=O)(=O)c3cccs3)CC2)cc1S(=O)(=O)N(C)C,,inactive: -12.6% [at 102 µM]
COc1cc(NC(=O)c2ccc3c(=O)n(Cc4ccco4)c(=S)[nH]c3c2)cc(OC)c1OC,"inconclusive: 39.8 µM [inhibitor, full curve, poor fit]",
CCn1c(COc2cccc3cccnc23)nnc1SCC(=O)O,"inconclusive: 100 µM [inhibitor, single point]",
CC(=O)Oc1c(Sc2ccccc2[N+](=O)[O-])c(C)nn1C(C)(C)C,active: 44.7 µM,
Cc1sc(Cc2nc(O)cs2)nc1-c1ccccc1,"inconclusive: 50.1 µM [inhibitor, partial curve, poor fit]",
CCCOc1ccc(C(CC(=O)O)NC(=O)C23CC4CC(CC(C4)C2)C3)cc1 (centres undefined),"inconclusive: 89.1 µM [inhibitor, partial curve, poor fit]",
CCOC(=O)CCC(=O)NCc1ccc2c(c1)cc(C)n2C,,inactive: 7.65% [at 0.0925 µM]
O=C(Cn1c(=O)n(Cc2ccc3c(c2)OCO3)c(=O)c2oc3ccccc3c21)Nc1ccccc1F,,inactive: 1.84%
COC(=O)N1CCC[C@@]2(CCN(C(=O)Nc3ccccc3)C2)C1,,inactive: 1.31% [at 12.7 µM]
COCCn1c(C)cc(O)c(C(c2ccccc2)N2CCN(c3ccccc3)CC2)c1=O (centres undefined),"inconclusive: 39.8 µM [inhibitor, single point]",
O=S(=O)(c1ccccc1S(=O)(=O)N1CCCCC1)N1CCCCC1,,inactive: 5.19% [at 102 µM]
O=C(O)c1ccc(Nc2nc(-c3cccnc3)cs2)cc1,"inconclusive: 89.1 µM [inhibitor, single point]",
Cc1cc(OCC(=O)Nc2cccc(S(=O)(=O)N3CCCC3)c2)ccc1Cl,"inconclusive: 79.4 µM [inhibitor, single point]",
COc1cc(OC)c(NC(=O)N2CCCn3nc(C)cc32)cc1Cl,,inactive: -7.59%
Cc1ccc2nc(SCC(=O)Nc3ccc(F)cc3F)[nH]c2c1,"inconclusive: 79.4 µM [inhibitor, partial curve, poor fit]",
Cc1ccc(CNC(=O)C2CCN(S(=O)(=O)c3ccc(F)cc3)CC2)cc1,,inactive: 11.5%
Cc1ccn2cc(C(=O)N3CCN(c4cnn(-c5ccccc5)c(=O)c4Cl)CC3)nc2c1,"inconclusive: 3.16 µM [inhibitor, single point]",
COc1cc(CNC(=O)C2CCCCN2S(=O)(=O)c2ccc(F)cc2)cc(OC)c1OC (centres undefined),,inactive: 1.01%
